Assay results reported in the supplement of paper PMC11417369.
The other results are listed elsewhere or left out.

The sequences below were run on PF3D7_0420300 AP2 domain 1 (GST-tagged) (assay: gcPBM binding intensity (ln(normalized median fluorescence intensity)); higher = stronger DNA binding).
How it was run: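 For binding intensity, the highest Masliner-normalised natural-log median intensity across replicate spots of either probe orientation was taken. Protein bound to the array was stained with Alexa488 anti-GST antibody and scanned at 488 nm. The protein, GST-tagged P. falciparum DNA-binding domains from E. coli at about 25 μg on average, had been applied for 1 h to an Agilent 4 × 180k array of primer-extended double-stranded 36-bp intergenic genomic probes and negative controls.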

Sequence	gcPBM binding intensity (ln)
TATATACATACATATACACACATATATATATATATA [CACACA_site401]	9.44
TCATTGTTTAATATGTGTCCTCAAAATTTGTTATAT [XGTACX_site677]	9.41
GTATAAAATATTGATTGTACTTTATTCATTTTTTTT [XGTACX_site2520]	9.25
TCATATTCCAAGTGTACACATAAATCCCTAATAACA [CACACA_site5167]	9.34
TCTTGTTAATATATTAAATATATCTATAAATATATA [XGTACX_negctrl_site486]	9.15
AAAAATAAAACAATTACACACATAACTTTATTTTTA [CACACA_site6563]	9.58
AAAAGCTTAAAAAATTGTACATAAATGAATAAATAT [XGTACX_site5201]	9.18
TAAACCTATTATACGGGTACTTATTTGATTCTTATA [XGTACX_site5292]	9.19
ACAAATGGAACTCCTACAAAAAATTTCCATAATATT [XGTACX_negctrl_site132]	9.16
ACCACCATATAACATACATGCATCTTTTTTCCCTTC [TGCATGCA_site583]	9.79
GAACTCATTTAATATTGTACATTCTGATATTTTTTA [XGTACX_site5995]	9.45
TTTTATATAAATATCACACACACACGCATGTTTTAA [CACACA_site6187]	9.91
TACAATATACCTACTTGTACACAAAATAAAAGTAGT [XGTACX_site6029]	9.43
TACACACCTAACTATGCATGCATCAATATAGTGGAT [TGCATGCA_site443]	9.27
TATTCATGCATATACACACACATATATATATATTTT [CACACA_site3955]	9.85
AAAAAAAAATTAAACATACACACGTTACTATTTTTA [CACACA_site1687]	9.31
AATGAAAAATTGTAATGTACATAAATAAATAAATAA [XGTACX_site4048]	9.26
ATCATAATTTATTATACACACAATACGTGACCTATT [CACACA_site6977]	9.67
TATATGTGATAACACGCACACAAATGTATATAATTT [CACACA_site2593]	9.45
AAAAAAAAAAAACATACACACATTGAACTTTTATAT [CACACA_site3250]	9.66
ATAAAATAAAAATTCTGTACAGAATTAAAAAAATAT [XGTACX_site6961]	9.34
AAAAAAAGTAAAAAGTGTACTTAATATATATATATA [XGTACX_site838]	9.19

Sequence	gcPBM binding intensity (ln)
TGTAGCATTTAATTCACACATAAAAAATGTATCCAT [CACACA_site4986]	9.1
TTAAAATGAAGAAGTGCACACATATATATATTTATA [CACACA_site8063]	9.37
TTAACACATTTTATGTGTACTCATATGATTTAAAAT [XGTACX_site7516]	9.11
CTAATAAAAAAAAAAAGTACATATGACAATATAAAG [XGTACX_site1598]	9.51
AATTTTTTTTTCTTTTGTACGTAAATATGTGTAGGC [XGTACX_site215]	9.12
TATAAACAGACGAAAACACACATATGTAGATATATA [CACACA_site6371]	9.74
TATATATTAGTGTTGACACACACAAAAAAAAAAAAA [CACACA_site8392]	9.32
ATCAGGCAAAATTTTTGTACATATATATTTTATTTT [XGTACX_site1245]	9.47
TTATAAATGTGCGTAGTGCATAAACAAAAAAAAAAT	9.6
ATTTTTTTTTTTTTTTTTTTTTTTTATGAATGTTAT [CACACA_negctrl_site1319]	9.06
ATTTTTTTTTTTTTTTTTTTTTTTTTTTTTTTTTTT [CACACA_negctrl_site1364]	9.52
TACACCCAGAAATGCACACACATATATATATATATA [CACACA_site5289]	9.7
ATGAACATGTGACAATGTACATTTATATCTTAAGAA [XGTACX_site4960]	9.06
ATAATATATATATATATGTATGTATATATGTATGTA [GTGCAC_negctrl_site575]	9.24
TATTCTTATTATTACACACACAATTATATTTACCCC [CACACA_site6381]	9.84
TATATATATATAATAGCATGCTATATTATATATATA [TGCATGCA_site886]	8.99
TATTTTTTAATTGTTTCACACATTATTTTTTACATA [CACACA_site6078]	9.38
TTAACATAAATTGTGTCATTTTTTTTTTTTTTTTTA [CACACA_negctrl_site1221]	8.96
TTACTTGTTTATTTTTTTTTTTTTTTTTTTTTTGTT [TGCATGCA_negctrl_site103]	9.11
TAATGGAGAAAATAATGTACTTAGATATTTGTTCTA [XGTACX_site6312]	9.1
AAGAACAAACAAAATAGTACAATATATATATATATA [XGTACX_site4258]	9.64
TTTAAATATTTTATAGCATGCTACCAATATGTATAT [TGCATGCA_site291]	9.15

Sequence	gcPBM binding intensity (ln)
CATATATAGATATATACACACATATAGATTTTCTTT [CACACA_site6797]	9.47
AACTATAATTAAAGGATGCACTTGAAGGCATTTCAA [GTGCAC_site9689]	9.17
TATTCATAACAATGATGTACATATATTTTTTTTTTC [XGTACX_site5619]	9.14
TATAAAATACTGTATCGATGGGGGAGGGCGCAGGGG [TGCATGCA_negctrl_site250]	11
AAAAAAAAAAAAAAAAAAAAAAAAAAAGATTATGAG [CACACA_negctrl_site1088]	9.14
TCAAATGTATATAATTGTACTTATCCTTTTCATTTT [XGTACX_site4879]	9.32
AAAAATTAGAAACACACACACATATATATATATATT [CACACA_site1042]	10
TTTTAAGTTTTTGAATGTACGTAATTTGTAAATTCT [XGTACX_site2448]	9.16
ATATATATATTTAAGGTGCGATTTTGTTATATTTAA	9.42
TTTTTATTAGGACATGCATACAAAATTAAAAAAAAT [TGCATGCA_site258]	9.13
GTATATAATTTATGTGCACACACTCCTATTTTTAGC [CACACA_site49]	9.6
AATTATATTAATATATAATAAAATAGGATGTTATTT [XGTACX_negctrl_site309]	9.14
TTATTAAAATATTAAAGTACAAAAAAAATAAATAAA [XGTACX_site6507]	9.24
TTATGTATATTATAAATTAATACATTTAAATTAATA [CACACA_negctrl_site34]	8.82
CTTATTTTATGTTATACACACAAAGAAAAAAAATAA [CACACA_site2165]	9.32
TATTAATTTATTTGTTGTACGTAAATATGCTTGTTT [XGTACX_site6591]	9.47
AAAAAAAAAAAAAATTGTACCCAAATATTTTTGTAG [XGTACX_site8303]	8.94
CGTTTGGTACACGTAGTGTTTTCGTTTGAATGTACC [GTGCAC_negctrl_site201]	9.39
TTTAATTTTCCCTTCACACATAATATATATCTGTAT [CACACA_site5370]	9.4
TTTAATCAATGATTTAATGAAAAAAGCAAAAAAAAA [GTGCAC_negctrl_site213]	9.05
GACATATATAGCAATCGTACATATATTATAAAAGGT [XGTACX_site6891]	9.5
AAAAGGAACAGACACACACACATATATAAATATGTA [CACACA_site7656]	9.97

Sequence	gcPBM binding intensity (ln)
TTTTTTTATATTATACGCACTAATATATATATATAT [XGTACX_negctrl_site40]	9.31
AAATAGACATAAAAAGGTACACAAATTGTGTATTAA [XGTACX_site527]	9.46
TAACACTTTTTTTTTCGTACATATATTATATATATA [XGTACX_site5470]	9.4
TAATAAGAAATAACAGGTACACATATATAAATATTA [XGTACX_site2976]	9.57
ATATGTAGATGATATTATTACTTTTCAAAAATTCAA [CACACA_negctrl_site933]	8.97
AAGTATAAAAAAAGGCGTACAAAAAAAAAAAAAAAA [XGTACX_site7309]	8.92
TTTTTCATTAATACAAGTACAAAATGATGTTGACAT [XGTACX_site1475]	9.06
TTTTTGTAAAAACACACACACAAACAGAAAAAATAA [CACACA_site2076]	9.93
TGTGCCCAAAATTATGCACACACCTAAAATTAATTT [CACACA_site2914]	9.42
ATGGTAGTTCTCCATGCATGCCTTTTTATTATCATA [TGCATGCA_site681]	9.56
TTTTATCTTTTTTTATTTTAATGTATTATTTTTATG [XGTACX_negctrl_site24]	9.32
ACTATTTAGTCTGGTGGTACTTTATATATAATTTCT [XGTACX_site5618]	9.7
ATATGTGTATGTGCGTGTACATATCTATACAGTTGT [XGTACX_site6540]	9.59
ATTATCATAATGTTCACACATATGGTATATATAGAT [CACACA_site6113]	9.28
TGAGCATAAAAAGGGTGTACTTAAATATATTATATA [XGTACX_site7556]	9.15
GAATATAATCTGTATTGTACGAAAGTTGAACACTTG [XGTACX_site8895]	9.16
TTGTATTATTATGTTGCACACATTTTATATAAAATA [CACACA_site3641]	9.56
TTTAGATAATTCATTACACACATGTATTTATATATA [CACACA_site5847]	9.52
TATATATATATATATATATATACAAATATATATTAT [CACACA_negctrl_site1729]	8.98
ATAAAAGATATTTTTACACACTTTTGATGAGATCGT [CACACA_site3053]	9.24
ATACCAACATATTATACACACCTTTATATTTTTTTT [CACACA_site5217]	9.78
GGTTGTATAAGTTTTTGTACATATATATATATATAT [XGTACX_site7487]	9.51
